The whole screen tested about 310,000 compounds, of which about 14,000 (4.5%) showed an effect of 50% or more. The effect is printed as a negative number. Some of the results follow.
The molecules below were run against human ether-à-go-go-related gene (hERG) potassium channel (human, UniProt Q12809) (assay: primary screen, population patch clamp on CHO cells stably expressing hERG).
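Also: peak tail current of the secondary pulse compared with the same well before compound.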

Sequence of human ether-à-go-go-related gene (hERG) potassium channel (Q12809 whole entry, looked up): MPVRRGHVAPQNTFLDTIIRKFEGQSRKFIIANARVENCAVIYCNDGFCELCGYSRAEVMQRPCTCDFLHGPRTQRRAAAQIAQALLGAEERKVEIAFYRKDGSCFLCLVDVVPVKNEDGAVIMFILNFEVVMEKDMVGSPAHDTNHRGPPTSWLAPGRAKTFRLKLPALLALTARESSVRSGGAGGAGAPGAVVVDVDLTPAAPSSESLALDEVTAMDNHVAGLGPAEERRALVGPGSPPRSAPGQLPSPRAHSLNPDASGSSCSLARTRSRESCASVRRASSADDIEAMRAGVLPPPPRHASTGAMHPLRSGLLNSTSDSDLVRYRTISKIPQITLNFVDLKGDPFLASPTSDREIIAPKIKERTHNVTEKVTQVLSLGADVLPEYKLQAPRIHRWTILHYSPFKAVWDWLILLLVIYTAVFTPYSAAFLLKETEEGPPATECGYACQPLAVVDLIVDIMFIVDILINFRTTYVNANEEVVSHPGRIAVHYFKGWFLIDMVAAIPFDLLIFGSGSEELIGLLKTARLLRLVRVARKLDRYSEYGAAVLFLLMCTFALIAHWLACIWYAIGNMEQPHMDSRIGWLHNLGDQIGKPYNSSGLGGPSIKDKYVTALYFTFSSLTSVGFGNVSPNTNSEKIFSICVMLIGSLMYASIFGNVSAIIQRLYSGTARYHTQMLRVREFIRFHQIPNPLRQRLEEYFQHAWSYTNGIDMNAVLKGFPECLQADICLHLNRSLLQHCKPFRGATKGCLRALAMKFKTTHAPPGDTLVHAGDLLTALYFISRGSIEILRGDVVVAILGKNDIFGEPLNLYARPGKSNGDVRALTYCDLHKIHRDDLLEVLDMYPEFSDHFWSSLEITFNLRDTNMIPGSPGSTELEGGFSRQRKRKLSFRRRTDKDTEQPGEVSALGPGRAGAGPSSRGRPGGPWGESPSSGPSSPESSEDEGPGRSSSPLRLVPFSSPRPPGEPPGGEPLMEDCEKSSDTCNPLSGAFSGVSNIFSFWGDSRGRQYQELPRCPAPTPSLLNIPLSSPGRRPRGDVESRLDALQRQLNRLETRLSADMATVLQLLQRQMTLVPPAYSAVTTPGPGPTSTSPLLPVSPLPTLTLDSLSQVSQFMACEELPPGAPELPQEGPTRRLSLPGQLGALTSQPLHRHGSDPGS

SMILES	hERG current change (%, negative = inhibition) at 10uM
O=C(/C=C/c1ccc([N+](=O)[O-])cc1)NC1CC2CCC1C2 (stereo not drawn)	-67.8%
CCC(=O)Nc1ccc(NC(=O)CSc2nc3c(c(=O)n(C)c(=O)n3C)n2CC)cc1	-0.577%
C=C1CCN([C@@H](C)C(=O)NCc2cc(OC)c(OC)c(OC)c2)S(=O)(=O)c2ccccc21	-1.5%
O=C1c2ccccc2NC(c2ccccc2)N1c1ccc(O)cc1 (stereo not drawn)	-4.88%
O=S(=O)(Nc1ccncc1Cl)c1cc(Cl)ccc1Cl	16.6%
CCC(=O)Nc1ccc(Cl)c(NC(=O)c2ccccc2OC)c1	13.5%
Cc1cccc(OCCC(=O)OCC(=O)N2CCc3ccccc32)c1	13.4%
Cc1ccc(NC(=O)N2CCC(C(=O)NCCC3=CCCCC3)CC2)cc1	4.36%
O=C(CCN1C(=O)/C(=C/c2ccccc2F)SC1=S)NCCc1ccc(O)cc1	14.1%
CC1=C(C(=O)OCC(C)C)C(c2ccccc2Cl)NC(=O)N1C (stereo not drawn)	-25.2%
Cc1cccc(N=C2SC(C)CN2C(=O)CN2C(=O)NC3(CCCC3)C2=O)c1 (stereo not drawn)	-37.6%
O=C1Nc2ccc(Cl)cc2/C1=C/C1CC=CCC1 (stereo not drawn)	0.239%
Cc1nc2ccc(S(=O)(=O)NCC(=O)O)cc2s1	2.48%
Cc1cccc(NC(=O)C(c2cccc([N+](=O)[O-])c2)N2CCCCC2)c1 (stereo not drawn)	-5.83%
Cc1cc(C(=O)Nc2c(F)cc(F)cc2Br)cs1	8.77%
O=C(CSc1nnc2c3ccccc3c3ccccc3c2n1)Nc1ccccc1	1.87%
Cc1ccc(C)c(NC(CC(=O)c2ccccc2)C(=O)OCC(=O)c2cccs2)c1 (stereo not drawn)	9.61%
COc1cc(S(=O)(=O)Nc2cccnc2)ccc1F	-2.69%
Cc1cccc(C)c1NC(=O)NCc1ccco1	13.4%
Nc1ccc(N2CCN(c3cccc(Cl)c3)CC2)cc1	-14.6%
COc1ccc(S(=O)(=O)N2CCN(C)CC2)cc1NC(=O)c1ccccc1C	-34.8%
O=C(O)COn1c(-c2ccccc2)nc2ccc(Cl)cc21	-8.64%
CCc1ccc2c(c1)C(NC(C)=O)C(=O)N2CCN1CCOCC1.Cl (stereo not drawn)	-5.6%

SMILES	hERG current change (%, negative = inhibition) at 10uM
COc1ccc(NS(=O)(=O)c2ccc3c(c2)NC(=O)CO3)cc1	0.556%
COc1ccc(C(=O)CN2C(=O)NC3(CCc4ccccc43)C2=O)c(OC)c1 (stereo not drawn)	6.24%
CC(=O)N1c2ccc(S(=O)(=O)N3CCCC3C(=O)Nc3ccc(C)cc3)cc2CC1C (stereo not drawn)	-28.3%
CCCOc1ccccc1NC(=O)CC1Nc2ccccc2NC1=O (stereo not drawn)	0.604%
CCCOC(=O)C1=C(C)NC2=C(C(=O)CCC2)C1c1cccs1 (stereo not drawn)	2.62%
O=C1/C(=C\c2ccsc2)NC(=S)N1c1ccccc1	15.4%
C/C=C/C(=O)OCC(=O)Nc1ccc(OC)c(OC)c1	22.2%
O=C(c1ccc2snnc2c1)N1CCN(c2ccccn2)CC1	-10.6%
O=C1CC2(CCN(C(=O)c3cccc(F)c3)CC2)Oc2ccccc21	-75.1%
C=C(C)C1CC=C(C)/C(=N/NC(=O)COc2ccccc2C)C1 (stereo not drawn)	1.17%
Cc1ccccc1CN1C(=O)c2ccccc2S(=O)c2ccc(C(=O)NCCCN3CCOCC3)cc21 (stereo not drawn)	-40.5%
CC1CCCC(C)N1C(=O)COC(=O)c1c[nH]c2ccccc12 (stereo not drawn)	-5.3%
O=C(CSCc1cccc(CSCC(=O)Nc2ccc3ccccc3c2)n1)Nc1ccc2ccccc2c1	9.54%
COc1cccc(Nc2nc(Nc3ccc(Cl)c(C(=O)O)c3)nc(C)c2[N+](=O)[O-])c1	-1.8%
CC(=O)N(C(C)=O)N1C(=O)c2cccc3c(N4CCOCC4)ccc(c23)C1=O	0.47%
CSc1nc2ccc(NS(=O)(=O)c3c(Cl)cccc3Cl)cc2s1	1.23%
COc1cc(/C=N/Nc2nc(N3CCCC3)nc(N3CCCC3)n2)ccc1OCc1ccccc1F	8.88%
Cc1ccccc1-n1nnnc1SC1CCOC1=O (stereo not drawn)	14.4%
COc1ccccc1Nc1ccc(C(=O)O)cc1[N+](=O)[O-]	14.3%
Cc1cccc(C)c1-n1c(C)cc(/C=N/NC(N)=S)c1C	15.6%
CC(OC(=O)c1ccc(S(=O)(=O)N(C)c2ccccc2)cc1)C(=O)NCCC1=CCCCC1 (stereo not drawn)	4.08%
CC(C)(C)NC(=O)C(c1cccs1)N(Cc1cccs1)C(=O)c1csnn1 (stereo not drawn)	-22.5%
Cc1ccc(-n2c(C)n[nH]c2=S)cc1C	33.7%

SMILES	hERG current change (%, negative = inhibition) at 10uM
CN(C)c1ccc(CNn2cnnc2SCc2ccc(F)cc2)cc1	-9.48%
COc1cccc(CN2CCN(Cc3ccco3)CC2)c1.O=C(O)C(=O)O	12.1%
Cl.Fc1ccc(C2CCNCC2COc2ccc3c(c2)OCO3)cc1 (stereo not drawn)	-6.92%
CN(C)c1ccc(/C=N/N2C(=S)SC(C)(C)C2N(O)C(=O)Nc2ccc([N+](=O)[O-])cc2)cc1 (stereo not drawn)	-8.05%
COc1ccc(-c2cn(CCC(=O)O)c(C)n2)cc1	3.86%
O=c1cc(N2CCCC2)c2ccccc2o1	-3.19%
O=C(Nc1cccc(O)c1)c1noc2c1CCCCC2	-8.56%
CCC(=O)N1CCN(c2ccc(NC(=O)COc3ccc(CC)cc3)cc2)CC1	-3.27%
NC(N)=Nc1nc(-c2ccccc2)c2ccccc2n1	-40.1%
Cc1ccc(C(=O)N2CCC(n3nccc3NC(=O)Nc3cccc(F)c3)CC2)cn1	5.74%
CCOc1ccc(OCc2ccc(C(=O)NCc3ccncc3)o2)cc1	-26.3%
CCN(C(=O)C(C)OC(=O)C1C(C(=O)OC)=C(C)NC(C)=C1C(=O)OC)c1ccccc1 (stereo not drawn)	6.24%
Clc1ccc(CN=C2Nc3ccccc3CS2)cc1	14.9%
COc1cccc(C(=O)NCCCNC(=O)c2ccccn2)c1	15%
CCOC(=O)C1CCN(C=Nc2cc(C)on2)CC1	18.1%
CCOC(=O)/C(=C\C=C\N1CCOCC1)C(C)=O	11.2%
COCCCNC(=O)C1CCCN(S(C)(=O)=O)C1 (stereo not drawn)	2%
Cc1ccc2oc(C(=O)Nc3ccc(S(=O)(=O)Nc4onc(C)c4C)cc3)cc(=O)c2c1	13.7%
CCOc1ccc(-n2nnnc2SCC(=O)N2CCOCC2)cc1	-0.317%
CC(C)NS(=O)(=O)c1ccc(CCC(=O)NCc2cccnc2)cc1	-4.63%
CN(C(=O)Cn1cc(C(F)(F)F)ccc1=O)c1c(N)n(Cc2ccccc2)c(=O)[nH]c1=O	19.3%
Cc1ccc(C(=O)NCC(=O)Nc2ccncc2)cc1C	1.6%
O=C(COC(=O)c1cccc(C(=O)OCC(=O)NC2CCCCC2)n1)NC1CCCCC1	-1.85%

SMILES	hERG current change (%, negative = inhibition) at 10uM
COc1ccccc1NC(=O)C(C)Sc1nccn1C (stereo not drawn)	-4.96%
Cc1occc1-c1nnc(SCC(=O)NC2CCCCC2)o1	5.06%
CSc1ncccc1C(=O)OCc1ccccc1	10.1%
O=C(c1ccccc1Sc1c(Cl)cccc1[N+](=O)[O-])N1CCOCC1	-5.51%
Cc1noc(NS(=O)(=O)c2ccc(NC(=O)c3ccoc3C)cc2)c1C	12.2%
CCSc1nnc(C)c(=O)n1COC(=O)c1ccc(S(=O)(=O)N2CCCC2)cc1	-6.38%
COc1ccc(C(=O)NC(C(=O)NCc2ccccc2OC)C(C)C)cc1 (stereo not drawn)	20.8%
CN(c1ccc(C(=O)Nc2ccc3c(c2)OCCO3)cc1)S(C)(=O)=O	3.76%
COC(=O)c1ccccc1NS(=O)(=O)c1cn(C)c(=O)n(C)c1=O	-4%
COc1ccc(OCC#CCN2CCCCCC2)cc1.O=C(O)C(=O)O	-16.1%
COc1ccc(C)cc1NC(=O)c1cc(-c2ccccc2)nc2c1cnn2C(C)C	5.86%
Cc1cc(/C=C(\C#N)C(=O)NCc2ccccc2)cc(C)c1O	15.7%
Oc1cc2c(cc1CN1CCN(c3ccccc3F)CC1)OCO2	-5.56%
O=c1c2ccccc2sc2ccc(Cl)cc12	17.9%
Cc1ccc(C)c(NC(=O)C(C)CC2COCCO2)c1 (stereo not drawn)	-12.1%
c1ccc(-n2nnnc2-n2cnc3ccccc32)cc1	-2.88%
Cc1ccc(S(=O)(=O)N/N=C/c2ccccc2F)cc1[N+](=O)[O-]	16%
O=C(CCN1C(=O)/C(=C/c2ccccc2)SC1=S)NCCCN1CCOCC1	-24.8%
CC(C)NC(=O)CN1C(=O)c2ccccc2S1(=O)=O	16.5%
CCOc1ccccc1NC(=O)CSc1nnc(-c2ccco2)n1Cc1ccco1	-63.4%
COc1cc(OC)cc(C(=O)Nc2ccc(CN3CCCCC3)cc2)c1	-14.7%

— PMC4336329 (PLoS ONE, 2015)
